Measurements from PubChem BioAssay AID504339 (National Center for Advancing Translational Sciences (NCATS), 2011).
About 17,000 (4.4%) of roughly 390,000 compounds were called active. The shares of active, inactive and inconclusive entries below differ from those in the screen. The call rests on the fitted dose curve; in most records, active means well fitted inhibition curve with a large enough effect; inconclusive means small, poorly fitted or top-dose-only effect; inactive means no such curve, though single readings can be large or run the other way. A potency beside an inconclusive call is a rough fit, not a confirmed value.

Target: Lysine-specific demethylase 4A (Homo sapiens) (UniProt O75164)
UniProt O75164, sequence (O75164 whole entry, looked up, the tested form may be a part): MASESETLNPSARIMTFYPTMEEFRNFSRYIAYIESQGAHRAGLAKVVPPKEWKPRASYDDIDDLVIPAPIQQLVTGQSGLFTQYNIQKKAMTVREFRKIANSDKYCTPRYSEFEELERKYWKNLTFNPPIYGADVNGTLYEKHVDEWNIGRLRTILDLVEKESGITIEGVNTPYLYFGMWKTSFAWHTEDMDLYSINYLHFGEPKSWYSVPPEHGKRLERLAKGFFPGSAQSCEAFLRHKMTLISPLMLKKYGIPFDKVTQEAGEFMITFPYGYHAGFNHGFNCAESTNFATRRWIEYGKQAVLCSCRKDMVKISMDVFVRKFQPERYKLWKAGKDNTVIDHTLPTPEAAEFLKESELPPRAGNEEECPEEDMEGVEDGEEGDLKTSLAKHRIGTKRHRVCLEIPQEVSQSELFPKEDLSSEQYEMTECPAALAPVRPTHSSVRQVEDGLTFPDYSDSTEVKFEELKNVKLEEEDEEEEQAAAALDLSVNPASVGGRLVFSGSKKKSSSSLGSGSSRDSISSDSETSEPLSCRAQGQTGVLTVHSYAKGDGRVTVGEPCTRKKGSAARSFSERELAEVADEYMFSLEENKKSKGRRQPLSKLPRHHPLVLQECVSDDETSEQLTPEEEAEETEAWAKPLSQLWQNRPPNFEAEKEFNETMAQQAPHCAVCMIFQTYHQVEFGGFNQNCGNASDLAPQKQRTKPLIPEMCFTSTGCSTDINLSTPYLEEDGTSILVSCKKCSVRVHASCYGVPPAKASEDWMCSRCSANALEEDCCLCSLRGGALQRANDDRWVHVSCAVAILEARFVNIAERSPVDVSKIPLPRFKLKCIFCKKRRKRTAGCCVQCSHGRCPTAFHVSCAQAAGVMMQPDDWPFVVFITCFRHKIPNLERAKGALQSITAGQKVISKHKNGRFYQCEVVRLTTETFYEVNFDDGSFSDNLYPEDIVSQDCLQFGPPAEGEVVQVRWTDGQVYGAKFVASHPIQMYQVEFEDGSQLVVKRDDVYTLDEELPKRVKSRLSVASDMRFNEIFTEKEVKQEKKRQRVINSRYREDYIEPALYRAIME
Assay: qHTS Assay for Inhibitors of JMJD2A-Tudor Domain; further: nearly all actives have a fitted effect of over 50% in size
Settings: AlphaScreen JMJD2A-Tudor / H3K4me3 peptide binding; activity change, negative = inhibition: at 114 µM (top of the series)
On the % scale 0 is the no-effect control and ±100 the full control effect; potency means the concentration at half of the fitted maximal effect; tags describe the fitted curve by direction and shape.

Potency, active:
CC1=NN(c2ccc(C(F)(F)F)cn2)C(=O)C1 79.4 µM
S=c1[nH]nc(-c2ccco2)n1C1CCCCC1 3.16 µM
Cc1ccc(C(=O)Nc2ccc(Oc3ccc(C(=O)O)c(C(=O)O)c3)cc2)cc1C 79.4 µM
Clc1cc(Br)ccc1OCCOCCN1CCCC1 31.6 µM
N[C@@H](C(=O)N[C@@H]1C(=O)N2C(C(=O)O)=C(Cl)CS[C@H]12)c1ccccc1 25.1 µM
COc1ccc(C(=O)NCC(c2ccc(N(C)C)cc2)N2CCc3ccccc32)cc1OC (stereo not given) 20 µM
C=C1c2cccc(O)c2C(=O)C2C(=O)[C@]3(O)C(=O)C(C(N)=O)C(=O)[C@@H](N(C)C)[C@@H]3[C@@H](O)[C@H]12 (stereo not given in full) 3.16 µM
Cc1ccc(C(=O)N/C(=C/c2ccco2)C(=O)Nc2cccc(C(=O)O)c2)cc1 79.4 µM
COc1ccc(S(=O)(=O)c2c(O)c3ccc(C(=O)Nc4ccc(F)cc4)cc3[nH]c2=O)cc1 50.1 µM
O=c1nc2c(O)cccn2c2c1c(=O)[nH]c1ccccc12 22.4 µM
O=C(O)c1ccc(-c2nc(-c3ccccc3)c(-c3ccccc3)[nH]2)cc1 79.4 µM
Cc1nn(C)cc1CN(C)C(=O)c1ccc(OC2CCN(Cc3ccccn3)CC2)cc1 56.2 µM
CN(C)CCCN1c2ccc3ccccc3c2Sc2cccc(Cl)c21 50.1 µM

Potency, inconclusive:
O=C(CCc1c[nH]c2ccccc12)OCc1cccc([N+](=O)[O-])c1 25.1 µM [inhibitor, full curve]
COc1ccc2[nH]c3c(c2c1)CCN1C(=O)C(CC(=O)NCCCn2ccnc2)C[C@H](C(=O)N2CCCCC2)[C@@]31CCc1ccccc1 (stereo not given in full) 39.8 µM [inhibitor, partial curve]
CCOc1ccccc1-c1ccc(C(=O)NCc2ccccc2)o1 25.1 µM [inhibitor, partial curve]
CCN(CC)c1ccc(CNc2nc3ccccc3n2C(C)C)cc1 20 µM [inhibitor, full curve]
C[C@@H](C(=O)N[C@@H](Cc1c[nH]c2ccccc12)C(=O)O)n1nnc2ccccc2c1=O 22.4 µM [inhibitor, full curve]
CC1CCc2nn(CC(=O)NCc3ccco3)cc2C1 (stereo not given) 17.8 µM [inhibitor, full curve]
CC1(C)Cc2sc3c(=O)[nH]c(=S)[nH]c3c2CO1 17.8 µM [inhibitor, partial curve, poor fit]
Cc1cccc(NC(c2ccccc2F)c2ccc3ccc(C)nc3c2O)n1 (stereo not given) 15.8 µM [inhibitor, full curve]
N#C/C(=C\Nc1ccc2c(c1)OCCO2)c1nc2ccccc2[nH]1 14.1 µM [inhibitor, full curve, poor fit]
O=C(O)C1CCCCC1C(=O)Nc1ccc(Cl)cc1 (stereo not given) 39.8 µM [inhibitor, single point]
O=C(Nc1ccc(Br)cn1)c1ccc([N+](=O)[O-])cc1Cl 79.4 µM [inhibitor, partial curve]
COc1ccc(C2c3cc(OC)c(OC)cc3CC(=O)N2c2ccc(C)c(F)c2)cc1 (stereo not given) 56.2 µM [inhibitor, partial curve]
C=Cc1ccc(Cn2c(C)c(CNCc3ccccc3C)c(C(=O)O)c2C)cc1 12.6 µM [inhibitor, full curve, poor fit]
COc1ccc(-c2nc(C#N)c(N3CCCCCC3)o2)cc1OC 44.7 µM [inhibitor, partial curve]
O=C(Nc1cccc(S(=O)(=O)N2CCCCC2)c1)C1CC(=O)N(Cc2ccco2)C1 (stereo not given) 89.1 µM [inhibitor, single point]
CCN(CC)C(=O)CSc1nc(-c2ccc(C)cc2)nc2c1Cc1c(CO)cnc(C)c1O2 56.2 µM [inhibitor, partial curve, poor fit]
COc1cccc(-c2nc(SCC(=O)NC3CCCC3)c(-c3ccc(C)cc3)[nH]2)c1 11.2 µM [inhibitor, partial curve]
O=C(CCc1ccc(O)c(O)c1)NNC(=S)NCCc1ccccc1 89.1 µM [inhibitor, single point]
CN(C)c1cccc(C(=O)NCc2ccc3c(c2)OCO3)c1 35.5 µM [inhibitor, partial curve]
COc1ccc(S(=O)(=O)C(C#N)c2nc3ccccc3nc2N2CCCC(C)C2)cc1 (stereo not given) 50.1 µM [inhibitor, partial curve]
C[C@@H]1CN([C@H](C)CO)C(=O)c2cc(NS(=O)(=O)c3ccc(F)cc3)ccc2O[C@@H]1CN(C)Cc1ccc(Cl)c(Cl)c1 35.5 µM [inhibitor, full curve, poor fit]
COc1cc(C2C(C(=O)c3ccco3)=C(O)C(=O)N2CC2CCCO2)ccc1O (stereo not given) 25.1 µM [inhibitor, single point]
Cc1ccc2c(c1)c1c(n2CC(O)CN2CCCCCC2)CCCC1 (stereo not given) 22.4 µM [inhibitor, single point]
COc1ccc(C(=O)Nc2cc(C(=O)c3ccccc3)c(C)oc2=O)cc1 89.1 µM [inhibitor, single point]
O=C(NC(=S)N1CCN(c2ccc(C(F)(F)F)cc2[N+](=O)[O-])CC1)c1cccs1 50.1 µM [inhibitor, partial curve]
CCOc1ccc(NS(=O)(=O)c2ccc3c4c(cccc24)C(=O)N3)cc1 56.2 µM [inhibitor, partial curve, poor fit]
Cc1ccc(C(=O)/C=C/NNC(=O)c2ccccc2O)cc1 20 µM [inhibitor, full curve]
COc1ccc(OC)c(S(=O)(=O)Nc2cccc(-c3ccc(N4CCCCC4)nn3)c2)c1 50.1 µM [inhibitor, partial curve]
COc1cccc(NC(=O)CC2Nc3cc(C)c(C)cc3NC2=O)c1 (stereo not given) 56.2 µM [inhibitor, partial curve]
NC(=S)NNC(=O)[C@@H]1CCCC[C@@H]1C(=O)O 70.8 µM [inhibitor, single point]
Cc1cc2c3c(c1C)C1(C(=O)N3C(C)(C)CC2C)C(C#N)=C(N)Oc2cc(O)ccc21 (stereo not given) 56.2 µM [inhibitor, partial curve, poor fit]
COc1ccccc1Cn1c(C)nnc1-c1cnn(C)c1N 35.5 µM [inhibitor, single point]
CCOC(=O)c1sc(SCC(=O)Nc2ccc(N(C)C)cc2)nc1N 56.2 µM [inhibitor, partial curve]
O=c1c(CN2CCN(Cc3ccccc3)CC2)coc2ccc(Cl)cc12 56.2 µM [inhibitor, partial curve]

Potency, inactive:
O=C(Nc1nnc(S(=O)(=O)N2CCCCC2)s1)c1ccccc1Br
CCCCCCCCCCCCCCCC[n+]1ccccc1

Activity change, negative = inhibition, inactive:
O=C(NCc1cccnc1)c1ccc(Cl)c(S(=O)(=O)N2CCOCC2)c1 -8.76%
COc1ccc(Nc2ncnc3c2nc2n3CCCCC2)cc1 -10.9%
CCc1ccc(NC(=O)Cn2c(=O)n(CCC(=O)NCCc3ccc(Cl)cc3)c(=O)c3ccccc32)cc1 6.48%
COc1ccccc1CCNC(=O)C(C)Sc1nc(-c2ccccc2)cc(C(F)(F)F)n1 (stereo not given) -11.7%
CCNC(=S)Nc1sc2c(c1C#N)CCC(C)C2 (stereo not given) -12.3%
O=C(NNC1CC(=O)N(c2ccc(Br)cc2)C1=O)c1ccco1 (stereo not given) -15.6%
O=C(CCC(=O)NCc1ccccc1)NCc1ccccc1 3.74%
COc1ccc(NCc2nnc(SCC(=O)Nc3nc(-c4ccccc4)cs3)n2-c2ccccc2)cc1 -12.4% [at 57.1 µM]
COc1ccc(-c2nc3ccccc3s2)cc1NC(=O)c1ccc(F)cc1 -29.5%
O=C(NC(=S)Nc1ccccc1O)c1cccnc1 -20.8%
C#Cc1ccc(CN2CCC(C(=O)Nc3ccc(Oc4ccccc4)nc3)CC2)cc1 -25%
CN(C)S(=O)(=O)c1ccc(Cl)c(C(=O)Nc2ccccc2[N+](=O)[O-])c1 -35%
COc1ccccc1Cn1c(=S)[nH]c2cc(C(=O)NC(C)C)ccc2c1=O -3.99%
N#Cc1ccccc1OCC(=O)Nc1nnc(C2CC2)s1 1.01%
O=C(NNC(=S)NCC1CCCO1)c1cccc(S(=O)(=O)N2CCOCC2)c1 (stereo not given) -10.2%
CCS(=O)(=O)N1CCC(C(=O)N2CCN(Cc3ccccc3)CC2)CC1 -10.1% [at 57.1 µM]
CCc1cccc(NC(=O)C(Cc2ccccc2)n2cccc2)c1 (stereo not given) 2.91%
CCOc1cc(/C=C\[N+](=O)[O-])ccc1OCC(=O)Nc1ccccc1C -10.6%
COc1ccc(/C=C/C(=O)Nc2nc(-c3cccs3)ns2)cc1OC 3.31%
Cc1ccc(-c2nnc(N(C)C(=O)C3CCCO3)s2)cn1 (stereo not given) -13.2%
CCc1nnc(NC(=O)c2ccc(S(=O)(=O)N3CCCC(C)C3)cc2)s1 (stereo not given) -9.86%
CC(=O)c1ccc(S(=O)(=O)N2CCN(C(=O)CSc3ccc(F)cc3)CC2)cc1 -2.47%
Cn1c(=O)c2c(nc(NN=C3CCCC3)n2C)n(C)c1=O -27.5%
CCc1ccc(S(=O)(=O)Nc2cccc(-c3ccc(N4CCOCC4)nn3)c2)cc1 -13.7%
O=C(NC1CCCCC1)C(c1cccs1)N(C(=O)c1ccccn1)c1ccccc1 (stereo not given) -6.54%
O=C(CCN1CCOCC1)NNC(=O)Nc1cccc(C(F)(F)F)c1 -1.39%
